Article PMC3527473, “The C-Terminus of ClpC1 of Mycobacterium tuberculosis Is Crucial for Its Oligomerization and Function” (PLoS ONE, 2012)

Target: the molecule itself
Assay: SEC; Superdex-200 (1×30 cm) in buffer A (50 mM Tris-HCl pH 7.6, 100 mM KCl, 5 mM DTT, 10% glycerol, 0.01% Triton X-100) with 15 mM ATP and 10 mM MgCl2; protein pre-incubated with 15 mM ATP and 10 mM MgCl2 for 30 min at 25°C; monomer to hexamer; fractions checked by SDS-PAGE

B1: Mycobacterium tuberculosis ClpC1, wild type (natural protein)
chain: not shown
notes: also called ClpC1-WT
stoichiometry N: 6
